Molecules are shown by their SMILES. Some of the results follow. Most values come without repeats; read them as rough.
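Note: cell number obtained by counting DAPI-stained nuclei in high-throughput microscope images with image analysis software, screen run in 1,536-well plates.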

The assay has as its system MZ2-MEL. The experiment in a line: cell count relative to DMSO control; melanoma cells; higher = more viable cells. The conditions noted are these: library dose: low library concentration; 72 h.
`Nc1nc(F)nc2c1ncn2[C@@H]1O[C@H](CO)[C@@H](O)[C@@H]1O` [fludarabine] + O=C(O)C(=O)Nc1sc2c(c1C(=O)O)CCNC2 [TCS401] (first compound 0.2 µM, partner dose 1.66667 µM) yielded a cell count of 107%.
Take `Nc1ncn([C@H]2C[C@H](O)[C@@H](CO)O2)c(=O)n1` [decitabine] + COc1cc(Nc2ncc(F)c(Nc3ccc4c(n3)NC(=O)C(C)(C)O4)n2)cc(OC)c1OC [Tamatinib] (first compound 0.1 µM, partner dose 0.4 µM): the cell count is 84.9%.
For the molecule `Nc1nc(F)nc2c1ncn2[C@@H]1O[C@H](CO)[C@@H](O)[C@@H]1O` [fludarabine] + CCc1ccc(CCOc2ccc(CC3SC(=O)NC3=O)cc2)nc1 [pioglitazone] (first compound 0.2 µM, partner dose 2 µM), the cell count is 106%.
As to `Nc1ccn([C@@H]2O[C@H](CO)[C@@H](O)C2(F)F)c(=O)n1` [gemcitabine] + O=C(Nc1cccc(Cl)c1)Nc1ncc(CCNc2ncnc3ccsc23)s1 [SNS314] (first compound 0.0004 µM, partner dose 0.0008 µM), the cell count turned out to be 98.3%.
The same measure for `Nc1ccn([C@@H]2O[C@H](CO)[C@@H](O)C2(F)F)c(=O)n1` [gemcitabine] + CN(C)S(=O)(=O)c1ccc2c(c1)/C(=C/c1cc3c([nH]1)CCCC3)C(=O)N2 [SU6656] (first compound 0.0004 µM, partner dose 0.4 µM): 93.1%.
Turning to `Nc1ncn([C@H]2C[C@H](O)[C@@H](CO)O2)c(=O)n1` [decitabine] + COc1cc(N2CCC(N3CCN(C)CC3)CC2)ccc1Nc1ncc(Cl)c(Nc2ccccc2S(=O)(=O)C(C)C)n1 [NVP-TAE684] (first compound 0.1 µM, partner dose 0.08 µM), the cell count was found to be 89.6%.
The molecule `CC(=O)O[C@@]12CO[C@@H]1C[C@H](O)[C@@]1(C)C(=O)[C@H](O)C3=C(C)[C@@H](OC(=O)[C@H](O)[C@@H](NC(=O)OC(C)(C)C)c4ccccc4)C[C@@](O)([C@@H](OC(=O)c4ccccc4)[C@H]21)C3(C)C` [Docetaxel] + CCCCCCCCCCCC1=C(O)C(=O)C=C(O)C1=O [Embelin] (first compound 0.0001 µM, partner dose 1.2 µM) registered a cell count of 42.4%.
Take `CC(=O)c1c(C)c2cnc(Nc3ccc(N4CCNCC4)cn3)nc2n(C2CCCC2)c1=O` [palbociclib] + O=C(Nc1cccc(Cl)c1)Nc1ncc(CCNc2ncnc3ccsc23)s1 [SNS314] (first compound 0.04 µM, partner dose 0.0008 µM): the cell count was determined as 80.3%.
In turn, `CC(=O)O[C@@]12CO[C@@H]1C[C@H](O)[C@@]1(C)C(=O)[C@H](O)C3=C(C)[C@@H](OC(=O)[C@H](O)[C@@H](NC(=O)OC(C)(C)C)c4ccccc4)C[C@@](O)([C@@H](OC(=O)c4ccccc4)[C@H]21)C3(C)C` [Docetaxel] + N#Cc1c(O)c2c(-c3ccc(-c4ccccc4O)cc3)csc2[nH]c1=O [A769662] (first compound 0.0001 µM, partner dose 2 µM) registered a cell count of 49.7%.
Turning to `Nc1ccn([C@@H]2O[C@H](CO)[C@@H](O)C2(F)F)c(=O)n1` [gemcitabine] + CC(C)CCN1c2nc(Nc3cc(F)c(O)c(F)c3)ncc2N(C)C(=O)C1C [BID1870] (first compound 0.0004 µM, partner dose 0.2 µM), the cell count came out at 95.3%.
`Nc1nc(F)nc2c1ncn2[C@@H]1O[C@H](CO)[C@@H](O)[C@@H]1O` [fludarabine] + N#Cc1c(O)c2c(-c3ccc(-c4ccccc4O)cc3)csc2[nH]c1=O [A769662] (first compound 0.2 µM, partner dose 2 µM): the cell count was 104%.
The molecule `Nc1ccn([C@@H]2O[C@H](CO)[C@@H](O)C2(F)F)c(=O)n1` [gemcitabine] + Cc1cc([N+](=O)[O-])ccc1NS(=O)(=O)c1cc(Cl)ccc1Cl [FH535] (first compound 0.0004 µM, partner dose 1 µM) had a cell count of 94.2%.
The same measure for `Nc1ccn([C@@H]2O[C@H](CO)[C@@H](O)C2(F)F)c(=O)n1` [gemcitabine] + Cc1cc(N2CCOCC2)cc2[nH]c(-c3c(NC[C@@H](O)c4cccc(Cl)c4)cc[nH]c3=O)nc12 [BMS536924] (first compound 0.0004 µM, partner dose 0.2 µM): 108%; for `Nc1nc(F)nc2c1ncn2[C@@H]1O[C@H](CO)[C@@H](O)[C@@H]1O` [fludarabine] + CO[C@@H]1[C@H](N(C)C(=O)c2ccccc2)C[C@H]2O[C@]1(C)n1c3ccccc3c3c4c(c5c6ccccc6n2c5c31)C(=O)NC4 [Midostaurin] (first compound 0.2 µM, partner dose 0.08 µM): 99.3%; for `Nc1ncn([C@H]2C[C@H](O)[C@@H](CO)O2)c(=O)n1` [decitabine] + O=C1NC(=O)/C(=C/c2ccc(-c3ccc(F)cc3O)o2)S1 [AS252424] (first compound 0.1 µM, partner dose 1 µM): 84.2%.
In the case of `Nc1ncn([C@H]2C[C@H](O)[C@@H](CO)O2)c(=O)n1` [decitabine] + CC(C)(C)c1cnc(CSc2cnc(NC(=O)C3CCNCC3)s2)o1 [SNS-032] (first compound 0.1 µM, partner dose 0.01 µM), the cell count was 87.5%.
Consider `Nc1ccn([C@@H]2O[C@H](CO)[C@@H](O)C2(F)F)c(=O)n1` [gemcitabine] + COc1ccc2c(c1)CCC1C2CCC2(C)C(NCCCCCCN3C(=O)C=CC3=O)CCC12 [U73122] (first compound 0.0004 µM, partner dose 0.4 µM), for which the cell count came out at 97.6%.
Consider `Nc1ncn([C@H]2C[C@H](O)[C@@H](CO)O2)c(=O)n1` [decitabine] + COc1cc2c(Oc3ccc4[nH]c(C)cc4c3F)ncnc2cc1OCCCN1CCCC1 [cediranib] (first compound 0.1 µM, partner dose 0.4 µM), for which the cell count came to 87.6%.
In turn, `Nc1ncn([C@H]2C[C@H](O)[C@@H](CO)O2)c(=O)n1` [decitabine] + CN(C)S(=O)(=O)c1ccc2c(c1)/C(=C/c1cc3c([nH]1)CCCC3)C(=O)N2 [SU6656] (first compound 0.1 µM, partner dose 0.4 µM) yielded a cell count of 90%.
`CC(=O)O[C@@]12CO[C@@H]1C[C@H](O)[C@@]1(C)C(=O)[C@H](O)C3=C(C)[C@@H](OC(=O)[C@H](O)[C@@H](NC(=O)OC(C)(C)C)c4ccccc4)C[C@@](O)([C@@H](OC(=O)c4ccccc4)[C@H]21)C3(C)C` [Docetaxel] + COc1cc(N2CCC(N3CCN(C)CC3)CC2)ccc1Nc1ncc(Cl)c(Nc2ccccc2S(=O)(=O)C(C)C)n1 [NVP-TAE684] (first compound 0.0001 µM, partner dose 0.08 µM) registered a cell count of 41.5%.
Turning to `Nc1nc(F)nc2c1ncn2[C@@H]1O[C@H](CO)[C@@H](O)[C@@H]1O` [fludarabine] + O=C(Nc1cccc(Cl)c1)Nc1ncc(CCNc2ncnc3ccsc23)s1 [SNS314] (first compound 0.2 µM, partner dose 0.0008 µM), the cell count worked out at 105%.
`CC(=O)O[C@@]12CO[C@@H]1C[C@H](O)[C@@]1(C)C(=O)[C@H](O)C3=C(C)[C@@H](OC(=O)[C@H](O)[C@@H](NC(=O)OC(C)(C)C)c4ccccc4)C[C@@](O)([C@@H](OC(=O)c4ccccc4)[C@H]21)C3(C)C` [Docetaxel] + CC(C)CCN1c2nc(Nc3cc(F)c(O)c(F)c3)ncc2N(C)C(=O)C1C [BID1870] (first compound 0.0001 µM, partner dose 0.2 µM): the cell count was 50.7%.
As to `Nc1ncn([C@H]2C[C@H](O)[C@@H](CO)O2)c(=O)n1` [decitabine] + COc1ccc(-c2ccc3c(N4CCOCC4)nc(N4C[C@@H](C)O[C@@H](C)C4)nc3n2)cc1CO [KU0063794] (first compound 0.1 µM, partner dose 0.02 µM), the cell count amounted to 89.6%.
For the molecule `Nc1ccn([C@@H]2O[C@H](CO)[C@@H](O)C2(F)F)c(=O)n1` [gemcitabine] + CC1(C)NC(=O)N(c2ccc([N+](=O)[O-])c(C(F)(F)F)c2)C1=O [nilutamide] (first compound 0.0004 µM, partner dose 1 µM), the cell count worked out at 91.7%.
Regarding `CC(=O)c1c(C)c2cnc(Nc3ccc(N4CCNCC4)cn3)nc2n(C2CCCC2)c1=O` [palbociclib] + CC(C)(C)c1cnc(CSc2cnc(NC(=O)C3CCNCC3)s2)o1 [SNS-032] (first compound 0.04 µM, partner dose 0.01 µM), the cell count amounted to 79.6%.
The result for `Nc1ccn([C@@H]2O[C@H](CO)[C@@H](O)C2(F)F)c(=O)n1` [gemcitabine] + Cc1ccc(NC(=O)c2cccc(N(C)C)c2)cc1NC(=O)c1ccc(O)cc1 [ZM336372] (first compound 0.0004 µM, partner dose 2 µM) reads 69.1%.
